# Laboratory results as given in the supplement of paper PMC11417369.
# This is one part of the list.
# Tested on: PfSIP2 AP2 domain 1 (GST-tagged)
# Experiment: gcPBM binding intensity (ln(normalized median fluorescence intensity)); higher = stronger DNA binding
# Summary of the method: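 For binding intensity, the highest Masliner-normalised natural-log median intensity across replicate spots of either probe orientation was taken. Protein bound to the array was stained with Alexa488 anti-GST antibody and scanned at 488 nm. The protein, GST-tagged P. falciparum DNA-binding domains from E. coli at about 25 μg on average, had been applied for 1 h to an Agilent 4 × 180k array of primer-extended double-stranded 36-bp intergenic genomic probes and negative controls.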
row,Sequence,gcPBM binding intensity (ln)
1,AAAATATATTCAACTTGTACATATATATATATATAT [XGTACX_site7629],9.65
2,TTTTTGTAATGACACACACACAAACAGAAAAAATAA [CACACA_site7062],7.19
3,TTATATATTTTGATTGCACACAGAATTTAAATCATG [CACACA_site8735],7.26
4,ATATATGTGCTAAAATGTACATAGTATAATATATTT [XGTACX_site1949],7.05
5,TTTAATCATTTTAGCTTACACACAAAATTTTGTTAT [CACACA_site2938],7.01
6,ATAAAATAAAGGAAAAATATTAAGTTTTAAGAAAAT [CACACA_negctrl_site1066],6.68
7,ATATTTAAGATTTAATCACACACATATATATTATAT [CACACA_site8946],7.14
8,TAGATACATAAAAGTGGTACATATATATATATATAT [XGTACX_site6263],9.44
9,AATATTTATATTTACACACACATAATACCTATATGT [CACACA_site6167],7.02
10,TGGAAATTCTCAGGAGTGCATATTTGCAGTTTACGT [GTGCAC_site9768],9.28
11,ATGGTTAAAAAAAGCATACACACTATCCTCTTTGCT [CACACA_site2552],6.84
12,TTTGTTGACGGACACACACACATACAGATATATATA [CACACA_site5292],7.32
13,ATAATAAATTATTATGTACACACATAATAGTATATA [CACACA_site8538],6.98
14,CCGTTGAACATATATGCACACACATAAAATAAAAAA [CACACA_site8761],7.65
15,ATATTTTTTTTTTTTTGTACATATATCATTATATAT [XGTACX_site866],7.13
16,TTTTTGTCTGCATACGCACACACGTGTACCATCTTA [CACACA_site1173],7.19
17,TGGTTACTGTCATTAGTTATTTCTTGTTGACAATTA [CACACA_negctrl_site416],6.81
18,AAAAAATCACAACACACACACACACTAATAAAAAAA [CACACA_site8410],7.05
19,AAATCACATAAAACATAATCAAATGAAATATAATCA [CACACA_negctrl_site123],6.62

row,Sequence,gcPBM binding intensity (ln)
1,TAAATATTATTATATACATGCACTTACAACTTTTTT [TGCATGCA_site877],8.6
2,ACTGTAAATTTATTCGGTACACATATAAATAATATT [XGTACX_site7346],7.41
3,ATTATTTTTAAAAATTGTACAGTATAAGAGAGAAAT [XGTACX_site7094],7.65
4,TATTGTAAAAAGATTACACACGTTCTATATACTTTT [CACACA_site5379],6.86
5,AATAAAAAAATATATTGTACTAATAATTATATGTTT [XGTACX_site2246],6.98
6,TTAATGGCAAAATAGGCACACACACCGATACATATA [CACACA_site8263],6.93
7,ACAGTAGCCAGTAACTGTACGGATTGTAGAGATCAG [XGTACX_site4873],6.94
8,ATAATATTTAGGTGTGCACACAAACATACATATATA [CACACA_site9120],8.81
9,ATGATAATTTTTTTCTCACACACAAATATTTTAATC [CACACA_site3665],6.93
10,CAATAATATATATATTGTACATTTTTTTTTATTATT [XGTACX_site3149],6.77
11,AAAGATTCTTTGAATTGTACAAATATATTTACTCAC [XGTACX_site8772],7.01
12,ATGTTCCATTTTACTTGTACTAATTTTTTCCTATCT [XGTACX_site6474],7.11
13,TATATTATTTTCTTTTGTACACATATATATCAGTGT [XGTACX_site664],7.07
14,ATAATAATAAAGTATGCATGCATATAATATAATATA [TGCATGCA_site796],7.13
15,TTTTTATTGCAATACTTATATTTTTTTATGATTAAA [TGCATGCA_negctrl_site147],7.01
16,AACGAAGCATAAAATGTTATGTATATATATAAATAT [TGCATGCA_negctrl_site304],7.09
17,TACCAAAAAAAAAAAATAATAATAAAAAAAAAAAAA [TGCATGCA_negctrl_site11],6.54
18,ATCATTTTGTGTTCAAGTACATAATGTTTTACACAA [XGTACX_site3565],6.76
19,ATGTGGAAATAGAGCACACATATATATAATATATAT [CACACA_site884],7.33

row,Sequence,gcPBM binding intensity (ln)
1,CATACATTATAAGATACATGCATATATCTGAACATA [TGCATGCA_site797],7.02
2,GCAAAACATTTTTAAAATAAAAATAATAAAATATAT [CACACA_negctrl_site219],6.81
3,TATTCATTAAACCATACACACATAATTTTTTTATAA [CACACA_site4618],7.04
4,ATATATTATATAAAAAGTACTAAAATAGTAAGATGT [XGTACX_site7493],7.37
5,AATGATTTTAAATGAACATAATTTATATTCATAACA [GTGCAC_negctrl_site256],6.7
6,GTGTGCCAAATTAGCACACACATATATACATGAATT [CACACA_site7346],7.16
7,ACACATAATATAAAGGTGCTATATTGTATTCATTTT [GTGCAC_site9457],8.36
8,TTTTCATACACTGCTAGTATATACTACCACTGACAT [GTGCAC_negctrl_site514],7.15
9,AAACATATATTAAGCACACACAAACAAAAAAACAAA [CACACA_site2549],7.13
10,TGCAAAAAAAAAAAAAAAAAATATATGGAAATATAT [GTGCAC_negctrl_site257],6.73
11,ACATTGAACAAAATAGTAAGCACATATATATATATA [GTGCAC_negctrl_site679],9.24
12,ACGTATCAATTTATTGGTACACATAAATATATATAT [XGTACX_site5556],8.68
13,TGATTCATTGATAAGGGTACATTTATAATTATGATA [XGTACX_site6319],6.94
14,AAAATGAATAAAAATACACACATATATGTTATTCTC [CACACA_site2671],6.8
15,AAATTGAGACAACAGGTGCATATAAATATACAGTGT [GTGCAC_site9634],10.6
16,CCAACATGCAGACGCACACACAAAAAAAGCATGCAT [CACACA_site74],7.15
17,AATAATATATATATTACACACTAATTGTATTATATA [CACACA_site448],6.97
18,TAACAATATCTAGATACACACACATATCTCTCAATC [CACACA_site8122],6.86
